Holding throughout (assay): cell-based or functional assay
Assay [1] concerns the target T1, intermediate affinity hIL-2 receptor complex (IL-2Rβγ) on TF1+IL-2Rβ cells (human, UniProt P14784 27-551; P31785 23-369).
T1 sequence 1: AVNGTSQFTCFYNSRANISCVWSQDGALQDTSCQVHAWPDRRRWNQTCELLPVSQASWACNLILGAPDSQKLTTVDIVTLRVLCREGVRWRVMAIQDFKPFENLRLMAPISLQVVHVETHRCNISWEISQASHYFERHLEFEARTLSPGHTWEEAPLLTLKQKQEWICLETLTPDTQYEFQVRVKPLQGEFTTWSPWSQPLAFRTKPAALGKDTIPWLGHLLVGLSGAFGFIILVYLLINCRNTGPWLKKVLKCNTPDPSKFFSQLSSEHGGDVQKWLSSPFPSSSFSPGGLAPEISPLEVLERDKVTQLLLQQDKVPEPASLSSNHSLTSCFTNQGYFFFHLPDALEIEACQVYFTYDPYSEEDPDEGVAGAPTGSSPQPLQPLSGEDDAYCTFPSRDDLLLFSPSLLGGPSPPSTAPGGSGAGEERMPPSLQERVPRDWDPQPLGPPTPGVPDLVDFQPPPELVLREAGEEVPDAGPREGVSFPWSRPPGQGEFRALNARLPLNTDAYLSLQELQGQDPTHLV
T1 sequence 2: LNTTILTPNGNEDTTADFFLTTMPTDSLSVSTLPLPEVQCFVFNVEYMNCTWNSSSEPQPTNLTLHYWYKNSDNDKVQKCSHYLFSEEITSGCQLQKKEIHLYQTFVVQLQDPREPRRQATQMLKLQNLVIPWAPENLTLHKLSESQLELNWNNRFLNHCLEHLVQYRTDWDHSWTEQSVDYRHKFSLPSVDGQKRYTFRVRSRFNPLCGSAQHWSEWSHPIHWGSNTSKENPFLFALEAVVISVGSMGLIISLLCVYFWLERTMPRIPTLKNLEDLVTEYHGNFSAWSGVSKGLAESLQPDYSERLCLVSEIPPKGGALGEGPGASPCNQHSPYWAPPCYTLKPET

The target of assay [2] is T2, high-affinity hIL-2 receptor (IL-2Rαβγ) on NK-92 cells (human, UniProt P01589 22-272; P14784 27-551; P31785 23-369).
T2 sequence 1: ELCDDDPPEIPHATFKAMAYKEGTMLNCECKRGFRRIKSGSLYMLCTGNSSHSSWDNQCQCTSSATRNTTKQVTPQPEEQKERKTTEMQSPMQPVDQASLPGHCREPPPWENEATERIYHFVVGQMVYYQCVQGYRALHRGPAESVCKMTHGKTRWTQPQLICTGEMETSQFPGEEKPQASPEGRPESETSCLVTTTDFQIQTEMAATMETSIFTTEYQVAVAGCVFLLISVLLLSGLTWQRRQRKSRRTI
T2 sequence 2: T1 sequence 1
T2 sequence 3: T1 sequence 2

Assay [3] addresses T3, high-affinity hIL-2 receptor (IL-2Rαβγ) on NK-92 cells (human, UniProt P01589 22-272; P14784 27-551; P31785 23-369).
T3 sequence 1: T2 sequence 1
T3 sequence 2: T1 sequence 1
T3 sequence 3: T1 sequence 2
This is another data set of the same source.

The target in assay [4] is T4, intermediate-affinity hIL-2 receptor (IL-2Rβγ) on TF1+IL-2Rβ cells (human, UniProt P14784 27-551; P31785 23-369).
T4 sequence 1: T1 sequence 1
T4 sequence 2: T1 sequence 2

B1: 1H3-hIgG1-L6-hCD25(1-164)-L20-hIL-2 (E15A) (other)
heavy: EVQLVESGGGLVQPGRSLKLSCAVSGFTFSDYAMAWVRQAPKKGLEWVATISYDGSRTYYRDSVKGRFTISRDNAKITLYLQMDSLRSEDTATYYCARHGSGYFDYWGQGVMVTVSS[not shown - human IgG1 constant region]SGGGGSELCDDDPPEIPHATFKAMAYKEGTMLNCECKRGFRRIKSGSLYMLCTGNSSHSSWDNQCQCTSSATRNTTKQVTPQPEEQKERKTTEMQSPMQPVDQASLPGHCREPPPWENEATERIYHFVVGQMVYYQCVQGYRALHRGPAESVCKMTHGKTRWTQPQLICTSGGGGSGGGGSGGGGSGGGS[not shown - about 150 residues]
light: DTVLTQSPALAVSPGERVTISCRASESVRTGVHWYQQKPGQQPKLLIYGASNLESGVPARFSGSGSGTDFTLTIDPVEADDTATYFCQQSWNDPFTFGSGTKLEIKRTVAAPSVFIFPPSDEQLKSGTASVVCLLNNFYPREAKVQWKVDNALQSGNSQESVTEQDSKDSTYSLSSTLTLSKADYEKHKVYACEVTHQGLSSPVTKSFNRGEC
Turning to B1, the “Fold change from hIL-2 (TF1 + IL-2Rβ)” value in assay [1] amounted to 1 fold. Also, the “Fold change from hIL-2 (NK-92)” value in assay [2] stood at 17 fold.

B2: 1H3-hIgG1-L6-hCD25(1-164)-L20-hIL-2 (D20F) (other)
heavy: EVQLVESGGGLVQPGRSLKLSCAVSGFTFSDYAMAWVRQAPKKGLEWVATISYDGSRTYYRDSVKGRFTISRDNAKITLYLQMDSLRSEDTATYYCARHGSGYFDYWGQGVMVTVSS[not shown - human IgG1 constant region]SGGGGSELCDDDPPEIPHATFKAMAYKEGTMLNCECKRGFRRIKSGSLYMLCTGNSSHSSWDNQCQCTSSATRNTTKQVTPQPEEQKERKTTEMQSPMQPVDQASLPGHCREPPPWENEATERIYHFVVGQMVYYQCVQGYRALHRGPAESVCKMTHGKTRWTQPQLICTSGGGGSGGGGSGGGGSGGGS[not shown - about 150 residues]
light: B1 light
On to B2, for which the “Fold change from hIL-2 (TF1 + IL-2Rβ)” value in assay [1] turned out to be 18 fold. The “Fold change from hIL-2 (NK-92)” value in assay [2] worked out at 23 fold.

B3: 1H3-hIgG1-L6-hCD25(1-164)-L20-hIL-2 (N88I) (other)
heavy: EVQLVESGGGLVQPGRSLKLSCAVSGFTFSDYAMAWVRQAPKKGLEWVATISYDGSRTYYRDSVKGRFTISRDNAKITLYLQMDSLRSEDTATYYCARHGSGYFDYWGQGVMVTVSS[not shown - human IgG1 constant region]SGGGGSELCDDDPPEIPHATFKAMAYKEGTMLNCECKRGFRRIKSGSLYMLCTGNSSHSSWDNQCQCTSSATRNTTKQVTPQPEEQKERKTTEMQSPMQPVDQASLPGHCREPPPWENEATERIYHFVVGQMVYYQCVQGYRALHRGPAESVCKMTHGKTRWTQPQLICTSGGGGSGGGGSGGGGSGGGS[not shown - about 150 residues]
light: B1 light
B3: the “Fold change from hIL-2 (TF1 + IL-2Rβ)” value in assay [1] amounted to 20 fold. Moreover, the “Fold change from hIL-2 (NK-92)” value in assay [2] amounted to 25 fold.

B4: 1H3-hIgG1-L6-hCD25(1-164)-L20-hIL-2 (D20W) (other)
heavy: EVQLVESGGGLVQPGRSLKLSCAVSGFTFSDYAMAWVRQAPKKGLEWVATISYDGSRTYYRDSVKGRFTISRDNAKITLYLQMDSLRSEDTATYYCARHGSGYFDYWGQGVMVTVSS[not shown - human IgG1 constant region]SGGGGSELCDDDPPEIPHATFKAMAYKEGTMLNCECKRGFRRIKSGSLYMLCTGNSSHSSWDNQCQCTSSATRNTTKQVTPQPEEQKERKTTEMQSPMQPVDQASLPGHCREPPPWENEATERIYHFVVGQMVYYQCVQGYRALHRGPAESVCKMTHGKTRWTQPQLICTSGGGGSGGGGSGGGGSGGGS[not shown - about 150 residues]
light: B1 light
For the molecule B4, the “Fold change from hIL-2 (TF1 + IL-2Rβ)” value in assay [1] stood at 15 fold. Moreover, in assay [2], the “Fold change from hIL-2 (NK-92)” value was 23 fold.

B5: 1H3-hIgG1-L6-hCD25(1-164)-L20-hIL-2 (S87A) (other)
heavy: EVQLVESGGGLVQPGRSLKLSCAVSGFTFSDYAMAWVRQAPKKGLEWVATISYDGSRTYYRDSVKGRFTISRDNAKITLYLQMDSLRSEDTATYYCARHGSGYFDYWGQGVMVTVSS[not shown - human IgG1 constant region]SGGGGSELCDDDPPEIPHATFKAMAYKEGTMLNCECKRGFRRIKSGSLYMLCTGNSSHSSWDNQCQCTSSATRNTTKQVTPQPEEQKERKTTEMQSPMQPVDQASLPGHCREPPPWENEATERIYHFVVGQMVYYQCVQGYRALHRGPAESVCKMTHGKTRWTQPQLICTSGGGGSGGGGSGGGGSGGGS[not shown - about 150 residues]
light: B1 light
Turning to B5, in assay [1], the “Fold change from hIL-2 (TF1 + IL-2Rβ)” value came out at 2 fold. For the same molecule, the “Fold change from hIL-2 (NK-92)” value in assay [2] was found to be 17 fold.

B6: 1H3-hIgG1-L6-hCD25(1-164)-L20-hIL-2 (D20I) (other)
heavy: EVQLVESGGGLVQPGRSLKLSCAVSGFTFSDYAMAWVRQAPKKGLEWVATISYDGSRTYYRDSVKGRFTISRDNAKITLYLQMDSLRSEDTATYYCARHGSGYFDYWGQGVMVTVSS[not shown - human IgG1 constant region]SGGGGSELCDDDPPEIPHATFKAMAYKEGTMLNCECKRGFRRIKSGSLYMLCTGNSSHSSWDNQCQCTSSATRNTTKQVTPQPEEQKERKTTEMQSPMQPVDQASLPGHCREPPPWENEATERIYHFVVGQMVYYQCVQGYRALHRGPAESVCKMTHGKTRWTQPQLICTSGGGGSGGGGSGGGGSGGGS[not shown - about 150 residues]
light: B1 light
For the molecule B6, the “Fold change from hIL-2 (TF1 + IL-2Rβ)” value in assay [1] turned out to be 15 fold. For the same molecule, the “Fold change from hIL-2 (NK-92)” value in assay [2] worked out at 21 fold.

B7: 1H3-hIgG1-L6-hCD25(1-164)-L20-hIL-2 (N88Y) (other)
heavy: EVQLVESGGGLVQPGRSLKLSCAVSGFTFSDYAMAWVRQAPKKGLEWVATISYDGSRTYYRDSVKGRFTISRDNAKITLYLQMDSLRSEDTATYYCARHGSGYFDYWGQGVMVTVSS[not shown - human IgG1 constant region]SGGGGSELCDDDPPEIPHATFKAMAYKEGTMLNCECKRGFRRIKSGSLYMLCTGNSSHSSWDNQCQCTSSATRNTTKQVTPQPEEQKERKTTEMQSPMQPVDQASLPGHCREPPPWENEATERIYHFVVGQMVYYQCVQGYRALHRGPAESVCKMTHGKTRWTQPQLICTSGGGGSGGGGSGGGGSGGGS[not shown - about 150 residues]
light: B1 light
Turning to B7, the “Fold change from hIL-2 (TF1 + IL-2Rβ)” value in assay [1] turned out to be 18 fold. Moreover, the “Fold change from hIL-2 (NK-92)” value in assay [2] was 23 fold.

B8: 1H3-hIgG1-L6-hCD25(1-164)-L20-hIL-2 (E95A) (other)
heavy: EVQLVESGGGLVQPGRSLKLSCAVSGFTFSDYAMAWVRQAPKKGLEWVATISYDGSRTYYRDSVKGRFTISRDNAKITLYLQMDSLRSEDTATYYCARHGSGYFDYWGQGVMVTVSS[not shown - human IgG1 constant region]SGGGGSELCDDDPPEIPHATFKAMAYKEGTMLNCECKRGFRRIKSGSLYMLCTGNSSHSSWDNQCQCTSSATRNTTKQVTPQPEEQKERKTTEMQSPMQPVDQASLPGHCREPPPWENEATERIYHFVVGQMVYYQCVQGYRALHRGPAESVCKMTHGKTRWTQPQLICTSGGGGSGGGGSGGGGSGGGS[not shown - about 150 residues]
light: B1 light
As to B8, the “Fold change from hIL-2 (TF1 + IL-2Rβ)” value in assay [1] is 1 fold. Also, in assay [2], the “Fold change from hIL-2 (NK-92)” value stood at 14 fold.

B9: 1H3-hIgG1-L6-hCD25(1-164)-L20-hIL-2 (E95K) (other)
heavy: EVQLVESGGGLVQPGRSLKLSCAVSGFTFSDYAMAWVRQAPKKGLEWVATISYDGSRTYYRDSVKGRFTISRDNAKITLYLQMDSLRSEDTATYYCARHGSGYFDYWGQGVMVTVSS[not shown - human IgG1 constant region]SGGGGSELCDDDPPEIPHATFKAMAYKEGTMLNCECKRGFRRIKSGSLYMLCTGNSSHSSWDNQCQCTSSATRNTTKQVTPQPEEQKERKTTEMQSPMQPVDQASLPGHCREPPPWENEATERIYHFVVGQMVYYQCVQGYRALHRGPAESVCKMTHGKTRWTQPQLICTSGGGGSGGGGSGGGGSGGGS[not shown - about 150 residues]
light: B1 light
For the molecule B9, the “Fold change from hIL-2 (TF1 + IL-2Rβ)” value in assay [1] is 8 fold. In addition, the “Fold change from hIL-2 (NK-92)” value in assay [2] was determined as 25 fold.

B10: 1H3-hIgG1-L6-hIL-2 (D20Q/R38E) (other)
heavy: EVQLVESGGGLVQPGRSLKLSCAVSGFTFSDYAMAWVRQAPKKGLEWVATISYDGSRTYYRDSVKGRFTISRDNAKITLYLQMDSLRSEDTATYYCARHGSGYFDYWGQGVMVTVSS[not shown - about 450 residues with a human IgG1 Fc and changes]
light: B1 light
For B10, the “Fold change from rhIL-2 (NK-92)” value in assay [3] is > 10000 fold. The “Fold change from rhIL-2 (TF1 + IL-2Rβ)” value in assay [4] is 6660 fold.

B11: 1H3-hIgG1-L6-hIL-2 (D20Y/R38E) (other)
heavy: EVQLVESGGGLVQPGRSLKLSCAVSGFTFSDYAMAWVRQAPKKGLEWVATISYDGSRTYYRDSVKGRFTISRDNAKITLYLQMDSLRSEDTATYYCARHGSGYFDYWGQGVMVTVSS[not shown - about 450 residues with a human IgG1 Fc and changes]
light: B1 light
Consider B11, for which, in assay [3], the “Fold change from rhIL-2 (NK-92)” value is > 10000 fold.

B12: 1H3-hIgG1-L6-hCD25(1-164)-L20-hIL-2 (N88D) (other)
heavy: EVQLVESGGGLVQPGRSLKLSCAVSGFTFSDYAMAWVRQAPKKGLEWVATISYDGSRTYYRDSVKGRFTISRDNAKITLYLQMDSLRSEDTATYYCARHGSGYFDYWGQGVMVTVSS[not shown - human IgG1 constant region]SGGGGSELCDDDPPEIPHATFKAMAYKEGTMLNCECKRGFRRIKSGSLYMLCTGNSSHSSWDNQCQCTSSATRNTTKQVTPQPEEQKERKTTEMQSPMQPVDQASLPGHCREPPPWENEATERIYHFVVGQMVYYQCVQGYRALHRGPAESVCKMTHGKTRWTQPQLICTSGGGGSGGGGSGGGGSGGGS[not shown - about 150 residues]
light: B1 light
As for B12, the “Fold change from hIL-2 (TF1 + IL-2Rβ)” value in assay [1] was 17 fold. In addition, the “Fold change from hIL-2 (NK-92)” value in assay [2] came to 23 fold.

The values above are taken from patent US20240076343A1 (CEPHALON, published 2024).
